In the supplement of paper PMC12217912:
The list shows a part of the results. Sequences were assembled here from the parent chain. Inactive controls read about 0.05.

B1: TEV protease; numbered along this chain (parent)
chain: MGESLFKGPRDYNPISSSICHLTNESDGHTTSLYGIGFGPFIITNKHLFRRNNGTLVVQSLHGVFKVKDTTTLQQHLVDGRDMIIIRMPKDFPPFPQKLKFREPQREERICLVTTNFQTKSMSSMVSDTSCTFPSGDGIFWKHWIQTKDGQCGSPLVSTRDGFIVGIHSASNFTNTNNYFTSVPKNFMELLTNQEAQQWVSGWRLNADSVLWGGHKVFMVKPEEPFQPVKEATQL

Variants of: B1
Experiment: raw area under fraction-flipped curve 0-4 h after induction (AUC4h, not background-subtracted), DNA-recorder readout of cleavage of the substrate (dimensionless); higher = more cleavage of the substrate by the protease variant
Conditions: temperature: 34 °C; time window: 0-4 h after rhamnose induction
Description: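 In vivo DNA recorder in E. coli TOP10(DE3) ΔrhaA at 34 °C. Each TEVp single-site mutant (parent TEVp 0) is paired with a single-site variant of the 7-mer TEVs (canonical ENLYFQ|S). The substrate sits between flexible linkers in a Bxb1-sfGFP-TEVs-SsrA fusion, so cleavage stabilises Bxb1 and speeds flipping of a recombination array, read by NGS. The value is the raw area under the fraction-flipped curve over 0-4 h after rhamnose induction (AUC4h), with ≥20 reads per time point. It is not background-subtracted; inactive controls average about 0.047.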
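Also: Bxb1 expression induced with 0.2% (w/v) L-rhamnose at OD600 near 0.5, cultures sampled hourly, flipped fraction per protease–substrate barcode pair counted by paired-end Illumina sequencing.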

| Variant | area with substrate ENLYFAS | area with substrate ENLYFDS | area with substrate ENLYFFS | area with substrate ENLYFGS | area with substrate ENLYFIS | area with substrate ENLYFLS | area with substrate ENLYFMS | area with substrate ENLYFNS | area with substrate ENLYFPS | area with substrate ENLYFRS | area with substrate ENLYFSS | area with substrate ENLYFYS | area with substrate ENLYFCS | area with substrate ENLYFES | area with substrate ENLYFVS | area with substrate ENLYFHS | area with substrate ENLYFTS | area with substrate ENLYFWS | area with substrate ENLYFKS |
| --- | --- | --- | --- | --- | --- | --- | --- | --- | --- | --- | --- | --- | --- | --- | --- | --- | --- | --- | --- |
| D161I | 0.0427 | 0.056 | 0.0627 | 0.0309 | 0.0543 | 0.0666 | 0.0501 | 0.0446 | 0.0562 | 0.0557 | 0.0392 | 0.0824 | – | – | – | – | – | – | – |
| T159D | 0.0654 | – | – | 0.0675 | – | – | – | – | 0.0544 | – | 0.0501 | 0.0685 | 0.052 | 0.0677 | 0.0353 | – | – | – | – |
| F140Q | 0.051 | – | – | – | – | – | – | – | – | – | – | – | 0.0447 | 0.0654 | – | 0.0637 | – | – | – |
| F140Y | 0.0671 | – | – | – | 0.0549 | 0.102 | 0.0592 | – | – | 0.041 | – | 0.0558 | – | 0.0686 | – | – | 0.0613 | – | – |
| G138K | 0.0623 | – | – | – | 0.0575 | 0.0659 | 0.0576 | 0.075 | 0.0658 | 0.0501 | – | – | – | 0.0579 | 0.0553 | – | 0.0613 | – | – |
| G138S | 0.0624 | – | – | – | – | 0.0541 | 0.0453 | – | – | – | 0.0706 | – | – | 0.063 | 0.0629 | 0.05 | 0.0448 | 0.0544 | – |
| C131V | 0.0463 | – | 0.0595 | – | 0.0499 | – | – | – | – | – | – | – | – | – | – | 0.0605 | – | 0.0593 | 0.0734 |
| L156T | 0.0619 | 0.0666 | 0.0641 | 0.0618 | 0.062 | 0.0567 | 0.0671 | 0.0574 | 0.0593 | 0.053 | 0.0585 | 0.0522 | 0.061 | 0.0682 | 0.0605 | 0.0521 | 0.0557 | 0.0541 | 0.0618 |
| G150I | 0.0643 | – | 0.0656 | 0.0497 | 0.0532 | 0.0633 | 0.0628 | 0.0554 | – | – | 0.063 | – | 0.0678 | 0.0576 | 0.0627 | 0.064 | 0.0568 | 0.0542 | 0.0438 |
| G150D | 0.105 | – | 0.0726 | – | – | 0.0324 | 0.0562 | 0.0554 | 0.0557 | – | – | – | – | 0.0503 | 0.0522 | – | 0.0541 | 0.0913 | – |
| F133R | 0.0625 | – | 0.0674 | 0.0296 | 0.0565 | 0.0607 | – | 0.0647 | 0.0965 | 0.0626 | 0.0305 | – | 0.0603 | – | 0.065 | – | – | 0.0587 | 0.0535 |
| I139R | 0.0585 | 0.0652 | 0.0702 | 0.0641 | – | 0.0455 | 0.043 | – | – | – | – | – | 0.0468 | 0.0615 | – | 0.0427 | – | – | 0.0465 |
| I139C | 0.0517 | – | 0.0748 | 0.0891 | 0.0621 | – | 0.0684 | – | 0.0341 | 0.0608 | 0.0614 | – | – | 0.0694 | 0.0573 | 0.0903 | 0.048 | – | 0.0626 |
| V165Y | 0.0532 | – | 0.0664 | 0.0523 | 0.0552 | 0.0594 | 0.064 | 0.0346 | – | 0.065 | 0.0469 | 0.0426 | 0.0559 | – | – | – | 0.0651 | 0.051 | – |
| V165W | 0.0527 | 0.0561 | 0.0494 | – | 0.0524 | – | – | 0.055 | 0.0518 | 0.0672 | – | – | 0.0426 | – | 0.0532 | – | 0.0461 | – | – |
| V157P | 0.0542 | – | – | 0.0568 | 0.0449 | 0.0718 | 0.0607 | 0.0578 | 0.0543 | 0.0584 | 0.056 | 0.053 | 0.0495 | 0.0463 | 0.0432 | 0.043 | – | – | – |
| K142A | 0.0602 | – | – | – | 0.0386 | – | 0.0572 | 0.0388 | 0.0545 | 0.0481 | – | – | – | 0.0656 | – | – | 0.0535 | – | 0.0612 |
| G162W | 0.0732 | 0.0467 | 0.0564 | – | 0.0532 | – | 0.0794 | – | 0.0607 | – | – | 0.0601 | – | 0.0337 | 0.0519 | – | 0.0414 | – | – |
| P134V | 0.0557 | – | 0.0548 | 0.0667 | 0.0526 | 0.0565 | – | 0.0621 | 0.0703 | 0.0565 | – | – | – | 0.0597 | 0.0578 | – | 0.0472 | 0.0588 | – |
| T147A | 0.0464 | – | 0.065 | 0.0578 | 0.0451 | 0.0551 | 0.0628 | – | 0.0611 | 0.0625 | 0.0677 | – | 0.044 | 0.0614 | 0.0595 | 0.0694 | 0.0644 | 0.0735 | 0.066 |
| C152N | 0.0546 | – | 0.0754 | – | 0.0552 | 0.0686 | – | – | 0.0544 | 0.0584 | 0.0692 | 0.0634 | 0.0536 | 0.0628 | – | – | 0.0388 | – | – |
| K148H | 0.0668 | 0.0643 | 0.0607 | – | 0.0544 | – | – | 0.0703 | 0.062 | – | 0.0509 | 0.0481 | – | 0.0872 | – | 0.0619 | 0.0611 | 0.0747 | 0.077 |
| D149L | 0.0577 | 0.0586 | 0.0793 | – | 0.0529 | – | – | – | – | 0.036 | 0.0665 | 0.0728 | 0.0634 | 0.0675 | 0.0572 | 0.0681 | – | – | – |
| Q151D | 0.0587 | 0.0556 | 0.0598 | 0.0417 | 0.0525 | – | 0.0648 | – | – | 0.0625 | – | – | – | 0.0542 | 0.0088 | – | 0.0549 | – | – |
| I145M | 0.0598 | 0.0601 | 0.0613 | 0.0552 | 0.0589 | – | 0.0714 | – | 0.0615 | 0.0549 | – | 0.0328 | 0.051 | 0.0552 | 0.0267 | 0.0495 | 0.0614 | 0.0599 | 0.052 |
| S135C | 0.0718 | – | 0.0737 | – | 0.0559 | 0.0517 | 0.0589 | 0.0666 | 0.061 | 0.0908 | 0.0502 | 0.0556 | 0.0619 | 0.0506 | 0.0565 | 0.0545 | 0.0629 | 0.0557 | 0.0212 |
| S135W | 0.0597 | 0.083 | 0.0688 | – | 0.0498 | – | 0.0477 | 0.0602 | 0.055 | – | – | – | 0.0595 | 0.067 | 0.0123 | – | – | 0.0584 | 0.0642 |
| Q146W | 0.0792 | 0.0226 | 0.0424 | 0.0542 | 0.0518 | – | 0.0855 | 0.0647 | 0.0431 | 0.077 | – | 0.0509 | – | – | 0.0544 | – | 0.0662 | 0.0636 | – |
| Q146S | 0.0756 | – | – | – | 0.046 | 0.055 | 0.0621 | – | 0.0682 | – | 0.0599 | 0.0462 | 0.0592 | – | – | – | – | – | – |
| Q146H | 0.0553 | 0.164 | 0.0682 | – | 0.0464 | 0.0668 | 0.0678 | 0.0597 | 0.0496 | 0.0777 | 0.0565 | 0.0543 | 0.0445 | 0.0634 | – | – | 0.0729 | 0.0587 | 0.0629 |
